Experimental data reported in the supplement of paper PMC4604168 (melanoma cell lines).
The list shows a part of the results. Most values come without repeats; read them as rough.

Key:
Experiment in all cases: cell count relative to DMSO control; melanoma cells; higher = more viable cells
Settings in all cases: library dose: standard library concentration; 72 h
G361 = test system: G361
IPC-298 = test system: IPC-298
IST-MEL1 = test system: IST-MEL1
LB2518-MEL = test system: LB2518-MEL
LOXIMVI = test system: LOXIMVI
MEL-HO = test system: MEL-HO
MZ2-MEL = test system: MZ2-MEL
MeWo = test system: MeWo
RPMI7951 = test system: RPMI7951
RVH-421 = test system: RVH-421
SkMel28 = test system: SkMel28
SkMel2 = test system: SkMel2
SkMel30 = test system: SkMel30
SkMel5 = test system: SkMel5
UACC257 = test system: UACC257
UACC62 = test system: UACC62
WM115 = test system: WM115
WM1716 = test system: WM1716
WM1745 = test system: WM1745
WM3526 = test system: WM3526
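Also: cells treated in 1,536-well plates, then fixed and DAPI-stained, with nuclei counted from automated high-throughput microscope images.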

| Structure (SMILES) | cell count (G361) [%] | cell count (IPC-298) [%] | cell count (IST-MEL1) [%] | cell count (LB2518-MEL) [%] | cell count (LOXIMVI) [%] | cell count (MEL-HO) [%] | cell count (MZ2-MEL) [%] | cell count (MeWo) [%] | cell count (RPMI7951) [%] | cell count (RVH-421) [%] | cell count (SkMel28) [%] | cell count (SkMel2) [%] | cell count (SkMel30) [%] | cell count (SkMel5) [%] | cell count (UACC257) [%] | cell count (UACC62) [%] | cell count (WM115) [%] | cell count (WM1716) [%] | cell count (WM1745) [%] | cell count (WM3526) [%] |
| --- | --- | --- | --- | --- | --- | --- | --- | --- | --- | --- | --- | --- | --- | --- | --- | --- | --- | --- | --- | --- |
| C#Cc1cccc(Nc2ncnc3cc(OCCOC)c(OCCOC)cc23)c1 [erlotinib] + CC1(C)NC(=O)N(c2ccc([N+](=O)[O-])c(C(F)(F)F)c2)C1=O [nilutamide] (first compound 4 µM, partner dose 5 µM) | 74.1 | 77.8 | 80.3 | 59.3 | 73.3 | 84.7 | 84.8 | 69.3 | 66.9 | 87.4 | 57.4 | 96.1 | 87.8 | 64.4 | 84.8 | 62.6 | 62.1 | 92 | 49.3 | 75.5 |
| COCC[n+]1c2c(n(Cc3cnccn3)c1C)C(=O)c1ccccc1C2=O + Cc1cc([N+](=O)[O-])ccc1NS(=O)(=O)c1cc(Cl)ccc1Cl [FH535] (first compound 0.002 µM, partner dose 5 µM) | 41.3 | 41.5 | 51.1 | 35.2 | 57.7 | 53.8 | 15.2 | 52.8 | 55.5 | 77.6 | 33.2 | 33 | 58.2 | 45.5 | 24.2 | 76.9 | 81.7 | 77.4 | 78.4 | 61.9 |
| Cn1c(Nc2ccc(C(F)(F)F)cc2)nc2cc(Oc3ccnc(-c4ncc(C(F)(F)F)[nH]4)c3)ccc21 + O=C(Nc1ccccc1)c1cc([N+](=O)[O-])ccc1Cl [GW9662] (first compound 0.4 µM, partner dose 10 µM) | 31.9 | 49.6 | 92.7 | 30.2 | 96 | 58.6 | 48.4 | 68.8 | 44.4 | 40.2 | 23.8 | 51.2 | 71.5 | 33.7 | 82.6 | 48.7 | 32.7 | 70.1 | 55.6 | 38.8 |
| Cn1c(Nc2ccc(C(F)(F)F)cc2)nc2cc(Oc3ccnc(-c4ncc(C(F)(F)F)[nH]4)c3)ccc21 + COc1cc(N2CCC(N3CCN(C)CC3)CC2)ccc1Nc1ncc(Cl)c(Nc2ccccc2S(=O)(=O)C(C)C)n1 [NVP-TAE684] (first compound 0.4 µM, partner dose 0.4 µM) | 15.1 | 48 | 98.7 | 26.2 | 61.3 | 58.4 | 51.5 | 44.9 | 48.7 | 51.9 | 29.7 | 16.5 | 50.1 | 37.3 | 65.7 | 57.5 | 37.2 | 67.6 | 30.6 | 35.5 |
| O=C(CCCCCCC(=O)Nc1ccccc1)NO [vorinostat] + CC1(C)NC(=O)N(c2ccc([N+](=O)[O-])c(C(F)(F)F)c2)C1=O [nilutamide] (first compound 0.4 µM, partner dose 5 µM) | 68.7 | 104 | 104 | 76.7 | 101 | 97.7 | 104 | 97.5 | 103 | 90.4 | 80.4 | 92.1 | 106 | 59 | 62.7 | 75.9 | 85.7 | 93.2 | 101 | 84.6 |
| OCc1c[nH]c2ccccc12 [Indole-3-carbinol] + Nc1cccc2c1CN(C1CCC(=O)NC1=O)C2=O [lenalidomide] (first compound 4 µM, partner dose 5 µM) | 108 | 98.8 | 112 | 87.4 | 90.6 | 105 | 105 | 96.6 | 69.4 | 128 | 74.1 | 98.9 | 91.7 | 87.3 | 97.5 | 69.2 | 105 | 99.2 | 67.2 | 77.5 |
| C#Cc1cccc(Nc2ncnc3cc(OCCOC)c(OCCOC)cc23)c1 [erlotinib] + O=c1cc(-c2cccc3c2Sc2ccccc2S3)oc(N2CCOCC2)c1 [KU55933] (first compound 4 µM, partner dose 5 µM) | 61.4 | 71.1 | 96.5 | 64.9 | 78.4 | 77.4 | 68.5 | 68.7 | 65.3 | 79 | 50.9 | 88.7 | 64.5 | 59.3 | 101 | 84.6 | 68.5 | 79.7 | 60.4 | 66.4 |
| O=C(CCCCCCC(=O)Nc1ccccc1)NO [vorinostat] + COc1cc(N2CCC(N3CCN(C)CC3)CC2)ccc1Nc1ncc(Cl)c(Nc2ccccc2S(=O)(=O)C(C)C)n1 [NVP-TAE684] (first compound 0.4 µM, partner dose 0.4 µM) | 58 | 85.1 | 114 | 78.3 | 78.3 | 84.9 | 86 | 64 | 49.1 | 73.4 | 47.7 | 52.4 | 101 | 64.5 | 57.8 | 74.3 | 80.8 | 87.2 | 50.6 | 50.2 |
| Nc1cccc2c1CN(C1CCC(=O)NC1=O)C2=O (stereo not given) [lenalidomide] + c1cc(-c2cnn3cc(-c4ccc(OCCN5CCCCC5)cc4)cnc23)ccn1 [Dorsomorphin] (first compound 5 µM, partner dose 2 µM) | 60.2 | 92.8 | 94.6 | 68.5 | 111 | 96.2 | 76.2 | 81.1 | 84.5 | 101 | 96.4 | 89.5 | 109 | 72.2 | 82.7 | 75.6 | 62.3 | 83.7 | 60.4 | 91.1 |
| C#Cc1cccc(Nc2ncnc3cc(OCCOC)c(OCCOC)cc23)c1 [erlotinib] + CO[C@@H]1[C@H](N(C)C(=O)c2ccccc2)C[C@H]2O[C@]1(C)n1c3ccccc3c3c4c(c5c6ccccc6n2c5c31)C(=O)NC4 [Midostaurin] (first compound 4 µM, partner dose 0.4 µM) | 44 | 59.8 | 79.9 | 53.6 | 47.8 | 65.4 | 72 | 64.8 | 30.1 | 62.9 | 42.2 | 53.5 | 63.7 | 40.4 | 55.8 | 41.2 | 35.6 | 42.1 | 25.1 | 49.7 |
| Cn1c(Nc2ccc(C(F)(F)F)cc2)nc2cc(Oc3ccnc(-c4ncc(C(F)(F)F)[nH]4)c3)ccc21 + COCC[n+]1c2c(n(Cc3cnccn3)c1C)C(=O)c1ccccc1C2=O [YM155] (first compound 0.4 µM, partner dose 0.002 µM) | 26.8 | 31.7 | 44.7 | 13.9 | 87.9 | 57.5 | 25.9 | 36.7 | 27.3 | 291 | 21.8 | 29.8 | 42.1 | 29.4 | 22.1 | 40.7 | 27.3 | 55.6 | 65.7 | 44.5 |
| Nc1cccc2c1CN(C1CCC(=O)NC1=O)C2=O (stereo not given) [lenalidomide] + O=S(=O)(c1ccccc1)N(CC(F)(F)F)c1ccc(C(O)(C(F)(F)F)C(F)(F)F)cc1 [T0901317] (first compound 5 µM, partner dose 7 µM) | 77.9 | 82.4 | 86.6 | 124 | 97.4 | 94.4 | 103 | 93 | 130 | 71.3 | 65.6 | 92.6 | 106 | 87.6 | 87.6 | 91.5 | 95.8 | 83.7 | 79.7 | 82.2 |
| Nc1cccc2c1CN(C1CCC(=O)NC1=O)C2=O (stereo not given) [lenalidomide] + CCN(CC)CCCCNc1ncc2cc(-c3cc(OC)cc(OC)c3)c(NC(=O)NC(C)(C)C)nc2n1 [PD173074] (first compound 5 µM, partner dose 0.5 µM) | 98.2 | 110 | 106 | 82.3 | 89.3 | 103 | 107 | 107 | 103 | 82.8 | 119 | 104 | 115 | 109 | 105 | 112 | 106 | 99.9 | 98 | 97.6 |
| Cn1c(Nc2ccc(C(F)(F)F)cc2)nc2cc(Oc3ccnc(-c4ncc(C(F)(F)F)[nH]4)c3)ccc21 + OCCn1cc(-c2cnc3nnn(Cc4ccc5ncccc5c4)c3n2)cn1 [PF04217903] (first compound 0.4 µM, partner dose 5 µM) | 31.9 | 48.3 | 73.7 | 41.9 | 65.4 | 69 | 82.4 | 81.2 | 59.4 | 52.3 | 51.2 | 61.9 | 74.6 | 37.9 | 71.8 | 65.4 | 58.5 | 77.6 | 68.6 | 45.6 |
| Cn1c(Nc2ccc(C(F)(F)F)cc2)nc2cc(Oc3ccnc(-c4ncc(C(F)(F)F)[nH]4)c3)ccc21 + O=C(O)C(=O)Nc1sc2c(c1C(=O)O)CCNC2 [TCS401] (first compound 0.4 µM, partner dose 8.33333 µM) | 36.6 | 46.7 | 83.8 | 34.6 | 76.9 | 67.2 | 70.9 | 62.2 | 50.8 | 71.2 | 27.7 | 53.3 | 58.6 | 40 | 77.7 | 66.3 | 43.5 | 76.9 | 39.7 | 42 |
| Cn1c(Nc2ccc(C(F)(F)F)cc2)nc2cc(Oc3ccnc(-c4ncc(C(F)(F)F)[nH]4)c3)ccc21 + O=c1cc(-c2cccc3c2Sc2ccccc2S3)oc(N2CCOCC2)c1 [KU55933] (first compound 0.4 µM, partner dose 5 µM) | 30 | 44.3 | 88.1 | 27.2 | 77.4 | 63.6 | 57.7 | 68.5 | 47.6 | 42.6 | 32.6 | 51 | 77.1 | 32.3 | 81.4 | 38.8 | 24.9 | 57.1 | 54.8 | 37.7 |
